Assay results from ChEMBL document CHEMBL4888484, “Replenishing the malaria drug discovery pipeline: Screening and hit evaluation of the MMV Hit Generation Library 1 (HGL1) against asexual blood stage Plasmodium falciparum ,using a nano luciferase reporter read-out” (2022).
Hit rate of the full screen: of about 150,000 compounds, about 540 (0.36%) showed an effect of 50% or more. This is one part of the list.

System: Plasmodium falciparum
Test: Primary screen in NF54 nanoGlo assay, in single point, at 2uM, 72h; a lower Z score goes with more inhibition
Type: functional, Erythrocyte
Conditions: timepoint 72 hour

SMILES	% Inhibition [%]	Z score
COc1ccc(-c2nnsc2C(=O)NCc2ccncc2)cc1	-5	0.8
CCOC(=O)c1cc(O[C@@H](C)C(=O)N2CCc3ccccc3C2)cc(C(=O)OCC)c1	-6	0.77
Cc1cccc(-c2nc(CN(C)Cc3sccc3C)c(C)o2)c1	-15	2.17
CC[C@@H](C(=O)Nc1c(-c2cccc(F)c2F)nc2cc(C)ccn12)c1ccccc1	-1	0.09
O=C(c1ccn2ccnc2c1)N(CCc1cccc(F)c1)C1CCCC1	-7	0.99
CCC(=O)N[C@@H](C)C(=O)N1Cc2cnc(CC)nc2C1	-13	2.48
Nc1nc(CCC(=O)N[C@H]2CN(C3CCCC3)C[C@@H]2C2CC2)cs1	0	-0.02
CN(C)c1ccc(C2OCC3(CCC4(COC(c5ccc(N(C)C)cc5)OC4)O3)CO2)cc1 (stereo unspecified)	37	-4.71
CC[C@H]1CN(C(=O)CON=C(N)c2ccc(F)c(F)c2)CCO1	-1	0.13
O=C(Nc1ccccc1)Nc1cc[n+]([O-])c(S(=O)(=O)c2ccccc2)c1	-1	0.17
CCc1ncc(C(=O)NCc2cnc(C)cn2)cn1	1	-0.14
Cc1cc(C(=O)N2Cc3cncnc3C2)c(C)o1	-8	1.3
Cc1ccc(NC(=O)c2nnn(CC(=O)Nc3nccs3)c2C)cc1F	0	0.03
O=C1C[C@@H](c2ccccc2)N(C(=O)c2ccc3c(c2)OCC(=O)N3)CCN1	-3	0.37
CCCN(CC(=O)NC(=O)NCC)[C@@H](C)c1ccc(Cl)c(Cl)c1	-3	0.36
CC(C)c1nc(NC(=O)c2ccccc2OC2CCC2)n(C)n1	2	-0.28
N#Cc1nccnc1O[C@H]1CC[C@H](NC(=O)c2ccco2)CC1	-11	1.31
CN(C)[C@@H](CNC1Cc2ccccc2C1)c1ccco1	-7	1.45
COc1cccc(NC(=O)Nc2cc(C)cc(N3CCN(C)CC3)c2)c1	-2	0.15
O=C(Nc1cccc2[nH]ccc12)N1CCC[C@H]1c1cccs1	-7	0.95
CNC(=O)Cc1ccccc1NC(=O)[C@@H]1OCC[C@@H]1C(C)C	3	-0.3

SMILES	% Inhibition [%]	Z score
O=C(NCc1nnc(C(=O)Nc2ccc(F)cc2)s1)Nc1ccc(Br)cc1F	13	-1.53
CCN(CCn1cccn1)Cc1cc2c(cc1Cl)OCO2	-12	1.32
COCCOc1ccccc1CN1CCN(C)[C@H](c2nc(C)no2)C1	-5	0.69
CC(C)(C)OC(=O)N1CCC2(CCC2=O)CC1	-4	0.5
Cc1cc(-c2c(C)sc(C)c2S(=O)(=O)N2CCN(c3cccc(Cl)c3)CC2)[nH]n1	-11	1.28
Cn1cc(CCNC(=O)[C@@H]2CC(c3ccc(Cl)cc3Cl)=NO2)cn1	-9	1.6
C[C@@H](CC#N)NC(=O)c1cnn(C(C)(C)C)c1	-1	0.23
Cc1noc(C)c1Cn1cccc1-c1nc(-c2ccc3c(c2)OCO3)no1	-1	0.28
O=C(c1cnn(-c2ncc3c(n2)-c2ccccc2CCC3)c1C1CC1)N1CCCC[C@@H]1CO	-15	1.89
CCc1ccncc1NS(=O)(=O)c1cn(C)nc1C1CCCC1	-17	3.42
CC(C)Cc1noc(CN(C)C[C@H]2CCOC2)n1	0	-0.05
CC(C)[C@H]1CN(Cc2ccncc2)C[C@@H]1NC(=O)N(C)C	-7	0.69
N#Cc1ccc(C2=CCN(C(=O)c3cncc(N4CCOCC4)c3)CC2)cc1	11	-1.13
CC(C)[C@H](Cn1ccnn1)NC(=O)c1ccc(Cl)s1	15	-1.98
COc1cccc(NC(=O)N2CC[C@H]3CC(=O)Nc4cccnc4OCC[C@H]3C2)c1	26	-2.96
NC(=O)c1cc(C(=O)NC2(c3c(Cl)cccc3Cl)CC2)co1	-1	0.16
O=C(NCC1CCN(c2cnccn2)CC1)Nc1cccs1	-9	1.49
COc1ccc(C2=NNC(c3ccc(Br)cc3)=Nc3ccc(F)cc32)cc1	-51	5.95
O=S(=O)(c1ccc(-c2cnc(C3CCC3)o2)s1)N1CCN(c2ccc(Cl)cc2)CC1	6	-0.72
CC[C@H](NS(=O)(=O)c1ccnn1CC)c1cc(C)ccn1	-11	0.94
CCC(=O)c1ccc(Oc2cc(C#N)c(C#N)cc2N2CCOCC2)cc1	-11	2.03

SMILES	% Inhibition [%]	Z score
CC1(C)C(=O)NCCN1C(=O)c1cc(-c2ccc(F)cc2)on1	12	-1.42
C=CCC(O)(CC=C)CNC(=O)C[C@H](C)n1ccnc1	-4	0.61
CS(=O)(=O)N1CCC[C@H]1c1nncn1-c1ccccc1	4	-0.58
CCc1ncnc(NCCc2nccs2)c1F	-4	0.4
CCCn1nc(C)c(CNC(=O)c2cnc[nH]2)c1C	-13	1.74
C[C@@H]1CN(C[C@@H]2CN(C(=O)c3cncc(Cl)c3)C[C@@H]2CO)C[C@H](C)O1	-5	0.73
COC(=O)[C@@H](C)NCc1cccc(C#N)c1	-9	1.25
Cn1cc(C(C)(O)CNC(c2ccccc2)c2ccc(F)cn2)cn1 (stereo unspecified)	-6	1.07
C=CCC[C@H](O)CN(Cc1ccccc1)Cc1c(C)nn(-c2ccccc2)c1Oc1ccc(OC)cc1	8	-1.01
Cc1cccc(OCc2nc(C)c(C(=O)NCc3ccc4c(c3)OCO4)s2)c1	1	-0.06
CC(C)c1ncc(CN2CCc3[nH]ncc3C2)s1	-3	0.6
Cc1ccc(F)c(NC(=O)c2cc(-c3cccc4ccccc34)[nH]n2)c1	15	-2.22
COc1cc(=O)n2c(c1C(=O)N1CCN(c3ccc(Cl)cc3)CC1)CCCCC2	-10	1.1
COc1ccc(CN2CC[C@@H](N3CCC(C)CC3)CCC2=O)cc1	1	-0.13
CCN(Cc1nc(C)n[nH]1)Cc1c(F)cccc1Cl	-17	1.51
Cc1ccc(-c2nc3ccc(Cl)cn3c2Nc2ccc3c(c2)OCO3)o1	-9	1.55
CC(C)c1nnc(-c2cccnc2N2CCN(C(=O)c3ccc4ccccc4n3)CC2)o1	-16	1.53
COc1ccc2c(c1)CCc1c(C(=O)NCCc3c[nH]cn3)n[nH]c1-2	-4	0.34
COc1ccc(C(=O)Nc2nc3ccccc3n2CCN2CCCC2)cc1	-4	0.61
c1ccc(-c2nc(CCNCc3cccc4cn[nH]c34)no2)nc1	-4	0.67
Cc1nc(-c2cc(S(=O)(=O)NCc3ccc(C)c(C)c3)c(C)s2)cs1	6	-0.72

SMILES	% Inhibition [%]	Z score
C=C(C)COc1ccc2oc(-c3ccc(OC)cc3)c(C(=O)Nc3ccc4c(c3)OCO4)c2c1	-12	2.33
CS(=O)(=O)N[C@H]1CCCN(c2ncns2)C1	-9	1.05
O=C(Nc1cc(-c2ccccc2)ns1)[C@@H]1CCCN1C(=O)c1cccs1	0	0.06
CCC(C)C(=O)Nc1cccc2c1CC(C)N(C(=O)C(C)CC)C2 (stereo unspecified)	-7	1.24
O=C(Nc1ccccc1C(=O)NCc1ccccn1)c1ncc[nH]1	4	-0.54
CCn1nccc1C(=O)N1CCC2(CC[C@@H]2OC)CC1	-2	0.21
c1cc2c(cc1-c1cnc3n1C[C@H](CNC1CCCC1)OC3)OCO2	-5	0.59
O=C(Cc1cscn1)N(C[C@H]1CCCO1)c1ccc(Br)cc1	-6	0.95
CCCc1ccc(CN2CCn3nc(CN4[C@@H]5CC[C@H]4C[C@@H](O)C5)cc3C2)o1	-12	1.14
COc1ccc(OC)c(CNC2CCCC23CCCO3)c1 (stereo unspecified)	-2	0.49
CCOC[C@@H](O)CN(Cc1c(C)nn(-c2ccccc2)c1Oc1ccc(F)cc1F)CC1CC1	-1	0.13
COc1ccc(-c2cc(NC(=O)c3ccc(C)c(NC(=O)c4ccco4)c3)ccc2OC)cc1	4	-0.66
COc1ccc(-c2ccc([C@H]3C[C@H](N)C3)cc2)c(CO)c1	-2	0.28
CC(NC(=O)Nc1cccnc1-n1cccn1)C1CCCO1 (stereo unspecified)	-12	1.51
Cc1cc2c(-c3cccc4ccnn34)ncnc2s1	1	-0.16
O=C(Nc1ccc(N2CCN(c3ccccc3F)CC2)c(S(=O)(=O)N[C@H]2CCCc3ccccc32)c1)C1CCCCC1	-5	0.87
Cc1cccc(C(=O)Nc2nccn(-c3ccc4c(c3)CCC4)c2=O)c1	8	-1.07
Cc1cc2nc(C)c(CCC(=O)NC[C@H]3CN(Cc4ccccc4)CCO3)c(C)n2n1	-12	1.8
Cc1ccc(S(=O)(=O)Nc2cc(C(=O)N3CCC[C@H](C)C3)ccc2N2CCNCC2)cc1C	-6	0.56
COc1ccc([C@H]2c3ccc(O)cc3Oc3ncn4nc(-c5ccc(Cl)cc5)nc4c32)cc1	-7	1.1
